# Source: PubChem BioAssay AID1347120 (National Center for Advancing Translational Sciences (NCATS), 2019)
# The whole screen tested about 390,000 compounds, of which about 930 (0.24%) were called active. Inconclusive results, whose numbers are uncertain, are shown with a selection of clear calls. The call rests on the fitted dose curve; in most records, active means well fitted activation curve with a large enough effect; inconclusive means small, poorly fitted or top-dose-only effect; inactive means no such curve, though single readings can be large or run the other way. A potency beside an inconclusive call is a rough fit, not a confirmed value.
# Assay: qHTS for Suppressors of FUS Proteinopathy: Primary screen using FUS-linked yeast assay; further: nearly all actives have a fitted effect of over 55% in size;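 on growth rescue (activation): plate controls were DMSO vehicle for no effect and reference control for full effect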
# Conditions: S. cerevisiae FUS-expressing, OD600, 24 h; Potency: growth rescue; growth rescue (activation): at 76.6 µM (top of the series)
# In short: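 Restored growth of FUS-toxic S. cerevisiae, read as 600 nm absorbance after 24 h at 30C in galactose medium (starting OD 0.005). Controls CP55940 and DMSO.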
# Potency means the concentration at half of the fitted maximal effect; tags describe the fitted curve by direction and shape.
Structure (SMILES),Potency,growth rescue (activation)
Cc1nn(Cc2cccc(C(=O)NC34CC5CC(CC(C5)C3)C4)c2)c(C)c1Br,"inconclusive: 44.7 µM [activator, single point]",–
C/C=C/C=C\C(=O)Nc1cccc(C2=NOC3(C2)C[C@@H](C(N)=O)N(C(=O)c2cc([N+](=O)[O-])cc([N+](=O)[O-])c2)C3)c1 (stereo not given in full),"inconclusive: 25.1 µM [activator, single point]",–
CCOC(=O)c1c(C)[nH]c(C)c1C(=O)CSc1nc2ccccc2c(=O)n1-c1ccccc1C,–,inactive: 33.6%
CC(C)(C)OC(=O)[C@H](Cc1ccccc1)NC(=O)c1nc[nH]c1C(=O)NC1CCN(C(=O)OC(C)(C)C)CC1,"inconclusive: 15.8 µM [activator, partial curve, poor fit]",–
O=C(COC(=O)CCc1ccc(S(=O)(=O)N2CCCCC2)cc1)Nc1ccc2c(c1)OCO2,"inconclusive: 10 µM [activator, partial curve, poor fit]",–
Cc1ccc(OCC(=O)NNC(=O)CCC(=O)NCc2ccccc2)cc1,"inconclusive: 11.2 µM [activator, single point]",–
O=C(Nc1ccc(N2CCOCC2)cc1)c1cccc(-n2cnnc2)c1,"inconclusive: 0.794 µM [activator, full curve, poor fit]",–
c1ccc(C2=Nc3c(ccc4ccccc34)C(c3ccncc3)=NN2)cc1,"inconclusive: 25.1 µM [activator, partial curve]",–
O=C(COC(=O)C(Cc1c[nH]c2ccccc12)NC(=O)c1ccc(Br)cc1)c1ccc(Cl)cc1 (stereo not given),"inconclusive: 25.1 µM [activator, partial curve, poor fit]",–
COc1ccc(N2CCN(C(=O)c3cc(S(=O)(=O)N4CCCCCC4)cn3C)CC2)cc1,"inconclusive: 44.7 µM [activator, single point]",–
COc1ccc(C2CC(c3ccc4ccccc4c3)=NN2C(=O)COC(=O)C2CCC(=O)N2)cc1 (stereo not given),"inconclusive: 50.1 µM [activator, single point]",–
O=S1(=O)c2ccc(Br)cc2OC[C@@H](c2ccccc2)N1Cc1cn(CCC2OCCCO2)nn1,–,inactive: -2.37%
CC1(C)C=C2C(N(Cc3ccc4c(c3)OCO4)C(=N)N2C(=O)OCc2ccccc2)n2c(=O)n(-c3ccccc3)c(=O)n21 (stereo not given),"inconclusive: 39.8 µM [activator, single point]",–
c1ccc(N2CCN(c3ncnc4sc5c(c34)CCC5)CC2)cc1,–,inactive: 6.62%
O=C(CN(Cc1ccccc1)S(=O)(=O)c1ccc2c(c1)OCCO2)N/N=C/c1ccc(F)cc1,"inconclusive: 44.7 µM [activator, single point]",–
Cc1ccc(NC(=O)C(C)N2CCCc3ccccc32)cc1S(=O)(=O)N1CCOCC1 (stereo not given),"inconclusive: 50.1 µM [activator, single point]",–
O=C(NCc1ccccc1Cl)C1CCC(CNS(=O)(=O)c2ccc(Cl)cc2)CC1 (stereo not given),–,inactive: 6.3%
Cc1ccccc1CNC(=O)c1ccc(Cn2c(SCc3cccc(F)c3)nc3cccnc32)cc1,"inconclusive: 39.8 µM [activator, single point]",–

Structure (SMILES),Potency,growth rescue (activation)
O=C(CCc1cn(Cc2ccccc2F)c2ccccc12)NCc1ccc(Cl)cc1,–,inactive: 24.7%
Cc1ccc(CCNC(=O)C2CCC(CNc3c(N4CCC(C)CC4)c(=O)c3=O)CC2)cc1 (stereo not given),"inconclusive: 39.8 µM [activator, single point]",–
CN(CC(=O)Nc1ccccc1Cl)C(=O)c1cccc(S(=O)(=O)N2CCN(c3ccc(F)cc3)CC2)c1,"inconclusive: 35.5 µM [activator, single point]",–
C=CC[C@H]1c2ccccc2[C@H]2N3N=Cc4ccccc4[C@H]3[C@H](CCCC)C(=O)N2N1C(=O)NCc1ccccc1,"inconclusive: 35.5 µM [activator, single point]",–
COc1ccccc1-c1cc2nc(-c3ccccc3)cc(N3CCN(C(=O)c4ccco4)CC3)n2n1,"inconclusive: 15.8 µM [activator, partial curve, poor fit]",–
CCCCOCCCNC(=O)C[C@H]1C[C@@]2(C(=O)OC)C(=C[C@H](C(C)C)O[C@@H]2C2CC2)N(CCC2=CCCCC2)C1=O,"inconclusive: 15.8 µM [activator, partial curve]",–
COc1cccc(CC(=O)OCC(=O)N(C)CC(=O)Nc2ccc(Cl)c(C(F)(F)F)c2)c1,"inconclusive: 31.6 µM [activator, single point]",–
COc1ccc(-n2c(SCC(=O)Nc3ccccc3-c3ccccc3)nnc2-c2ccccc2)cc1,"inconclusive: 15.8 µM [activator, partial curve]",–
COCCCNC(=O)C[C@H]1C[C@@]2(C(=O)OC)C(=C[C@H](C(C)(C)C)O[C@@H]2C)N(Cc2ccco2)C1=O,–,inactive: 16.2%
O=[N+]([O-])c1ccc2[nH]c(O)c(N=Nc3ccc(F)cc3)c2c1,–,inactive: 5.63%
Cc1c(CCC(=O)N2CCC[C@H]2C(=O)O)c(=O)oc2cc3oc4c(c3cc12)CCCC4,"inconclusive: 25.1 µM [activator, partial curve, poor fit]",–
O=C(Nc1ccccc1)c1sc2cc(C(F)(F)F)cnc2c1-c1cccs1,–,inactive: -4.97%
Cc1sc2nc(C3CC3)nc(N3CCN(C(=O)c4ccccc4F)CC3)c2c1C,"inconclusive: 17.8 µM [activator, partial curve]",–
O=C(Nc1cccc(C(=O)Nc2ccc(F)cc2F)c1)c1ccccc1,"inconclusive: 3.98 µM [activator, single point]",–
CCOc1ccc(CCN2C(=S)N([C@@H](Cc3ccc(O)cc3)CN3CCC[C@@H]3CN3C(=S)NC[C@@H]3Cc3ccc(O)cc3)C[C@@H]2Cc2ccc(O)cc2)cc1,"inconclusive: 17.8 µM [activator, partial curve]",–
CC(C)N(Cc1ccccc1)C(=O)COC(=O)C1CCN(S(=O)(=O)c2ccc3c(c2)OCCO3)CC1,"inconclusive: 14.1 µM [activator, partial curve, poor fit]",–
CCOC(=O)Cc1cc(=O)n2[nH]c(C)c(-c3ccc(OC)cc3)c2n1,"inconclusive: 31.6 µM [activator, partial curve]",–
